Measurements published in patent US11672826 (dated 2023).

Tests used:
human CD16b on CHO cells = target: T1, human CD16b on CHO cells (human, UniProt O75015 17-200); experiment: flow cytometry on CHO cells stably expressing human CD16b; biotinylated anti-human tissue factor and PE streptavidin
T1 construct: also called CHO cells expressing human CD16b
T1 chain: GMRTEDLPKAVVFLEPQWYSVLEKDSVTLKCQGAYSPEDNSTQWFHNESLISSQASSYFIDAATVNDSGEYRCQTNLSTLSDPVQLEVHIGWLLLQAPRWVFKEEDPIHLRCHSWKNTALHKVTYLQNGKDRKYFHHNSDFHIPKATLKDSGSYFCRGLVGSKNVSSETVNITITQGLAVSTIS

TGFβ1 (R&D systems) = TGFβ1 (R&D systems) (UniProt P01137 fragment); experiment: cell-based or functional assay
[1] = target: T2, TGFβRII/IL-15RαSu fusion protein; experiment: co-expression in CHO-K1 cells
T2 construct: also called TGFRs; TGFβR/IL-15RαSu
T2 chain: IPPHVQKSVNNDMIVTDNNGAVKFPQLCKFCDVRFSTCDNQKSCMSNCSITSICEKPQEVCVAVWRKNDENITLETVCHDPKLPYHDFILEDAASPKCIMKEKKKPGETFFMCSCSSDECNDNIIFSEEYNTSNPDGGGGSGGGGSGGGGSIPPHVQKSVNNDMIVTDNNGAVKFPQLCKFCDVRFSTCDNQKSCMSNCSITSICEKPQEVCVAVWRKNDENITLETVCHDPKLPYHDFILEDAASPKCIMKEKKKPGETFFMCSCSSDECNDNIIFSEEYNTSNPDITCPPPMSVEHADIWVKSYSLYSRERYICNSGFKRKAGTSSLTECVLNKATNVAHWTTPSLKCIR

[2] = target: T3, anti-CD16scFv/IL-15RαSu/IL-21 fusion protein; experiment: co-expression in CHO-K1 cells
T3 construct: also called 16s21

[3] = target: T4, TGFR/IL-15RαSu/anti-CD16scFv fusion protein; experiment: co-expression in CHO-K1 cells
T4 construct: also called TGFRs16

[4] = target: T5, TGFR/IL-15RαSu/IL-21 fusion protein; experiment: co-expression in CHO-K1 cells
T5 construct: also called TGFRs21

[5] = target: T6, TGFR/IL-15RαSu/CD137L fusion protein; experiment: co-expression in CHO-K1 cells
T6 construct: also called TGFRs137L
T6 chain: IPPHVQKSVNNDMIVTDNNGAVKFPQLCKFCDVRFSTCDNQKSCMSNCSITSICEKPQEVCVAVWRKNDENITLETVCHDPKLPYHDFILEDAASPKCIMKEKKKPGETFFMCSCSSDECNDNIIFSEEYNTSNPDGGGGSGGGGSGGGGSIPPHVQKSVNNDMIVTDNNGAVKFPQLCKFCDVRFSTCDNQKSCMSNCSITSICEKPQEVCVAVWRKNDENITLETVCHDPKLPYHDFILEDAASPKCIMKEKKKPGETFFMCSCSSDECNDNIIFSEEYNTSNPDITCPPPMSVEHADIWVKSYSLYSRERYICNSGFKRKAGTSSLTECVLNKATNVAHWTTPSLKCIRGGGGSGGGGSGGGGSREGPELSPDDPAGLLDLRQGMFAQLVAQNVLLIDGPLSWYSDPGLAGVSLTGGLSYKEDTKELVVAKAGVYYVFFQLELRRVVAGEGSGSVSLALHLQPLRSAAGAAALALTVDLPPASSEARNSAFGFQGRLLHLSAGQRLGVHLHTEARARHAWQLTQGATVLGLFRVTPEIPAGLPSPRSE

[6] = target: T2, TGFβRII/IL-15RαSu fusion protein; experiment: co-expression in CHO cells; both chains shown in the purified complex by sandwich ELISA
[7] = target: T7, IL-7/IL-15RαSu fusion protein; experiment: co-expression in CHO-K1 cells
T7 construct: also called 7s
T7 chain: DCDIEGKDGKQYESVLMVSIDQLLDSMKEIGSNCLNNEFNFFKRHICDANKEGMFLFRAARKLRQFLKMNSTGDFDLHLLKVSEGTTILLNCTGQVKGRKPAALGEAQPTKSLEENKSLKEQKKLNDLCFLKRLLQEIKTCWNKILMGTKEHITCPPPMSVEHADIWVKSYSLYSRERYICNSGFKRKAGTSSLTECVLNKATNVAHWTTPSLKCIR

[8] = target: T8, IL-21/IL-15RαSu/CD137L (short version) fusion protein; experiment: co-expression in CHO-K1 cells
T8 construct: also called 21s137L (short version)

[9] = target: T9, IL-21/IL-15RαSu fusion protein; experiment: co-expression in CHO-K1 cells; complex purified by anti-TF (IgG1) affinity and size exclusion chromatography
T9 construct: also called 21s

[10] = target: T10, IL-12/IL-15RαSu/αCD16scFv fusion protein; experiment: co-expression in CHO-K1 cells
T10 construct: also called 12s16

[11] = target: T11, IL-18/IL-15RαSu fusion protein; experiment: co-expression in CHO-K1 cells
T11 construct: also called s18; 518

TGFβ1 (R&D systems), sequence (P01137 279-390 limits assumed): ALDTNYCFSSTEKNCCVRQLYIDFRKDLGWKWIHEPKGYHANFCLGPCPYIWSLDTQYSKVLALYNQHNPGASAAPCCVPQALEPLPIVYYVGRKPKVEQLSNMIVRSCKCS
T8 sequence (chain, as listed by the source): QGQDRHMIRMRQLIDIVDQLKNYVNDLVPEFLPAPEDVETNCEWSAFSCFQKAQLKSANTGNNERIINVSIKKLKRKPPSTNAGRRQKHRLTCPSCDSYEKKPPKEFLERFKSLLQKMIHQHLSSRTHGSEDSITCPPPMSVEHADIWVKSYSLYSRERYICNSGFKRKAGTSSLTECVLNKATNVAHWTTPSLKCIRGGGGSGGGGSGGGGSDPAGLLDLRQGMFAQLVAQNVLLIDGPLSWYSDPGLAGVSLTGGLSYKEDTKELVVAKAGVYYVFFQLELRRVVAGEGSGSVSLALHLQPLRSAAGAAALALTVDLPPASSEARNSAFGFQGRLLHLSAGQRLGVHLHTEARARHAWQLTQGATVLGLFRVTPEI

B1: IL-18/TF/IL-15:IL-12/IL-15RαSu protein complex (other)
chain 1: not shown
chain 2: IWELKKDVYVVELDWYPDAPGEMVVLTCDTPEEDGITWTLDQSSEVLGSGKTLTIQVKEFGDAGQYTCHKGGEVLSHSLLLLHKKEDGIWSTDILKDQKEPKNKTFLRCEAKNYSGRFTCWWLTTISTDLTFSVKSSRGSSDPQGVTCGAATLSAERVRGDNKEYEYSVECQEDSACPAAEESLPIEVMVDAVHKLKYENYTSSFFIRDIIKPDPPKNLQLKPLKNSRQVEVSWEYPDTWSTPHSYFSLTFCVQVQGKSKREKKDRVFTDKTSATVICRKNASISVRAQDRYYSSSWSEWASVPCSGGGGSGGGGSGGGGSRNLPVATPDPGMFPCLHHSQNLLRAVSNMLQKARQTLEFYPCTSEEIDHEDITKDKTSTVEACLPLELTKNESCLNSRETSFITNGSCLASRKTSFMMALCLSSIYEDLKMYQVEFKTMNAKLLMDPKRQIFLDQNMLAVIDELMQALNFNSETVPQKSSLEEPDFYKTKIKLCILLHAFRIRAVTIDRVMSYLNASITCPPPMSVEHADIWVKSYSLYSRERYICNSGFKRKAGTSSLTECVLNKATNVAHWTTPSLKCIR
notes: multi-chain chimeric polypeptide made in CHO-K1 cells, glycosylated; chains associate through IL-15 and the IL-15Rα sushi domain; also called 18t15-12s
B1: no binding (tested: 1.2 µg/mL) (human CD16b on CHO cells).

B2: 7t15-TGFRs (IL-7/TF/IL-15 with TGFβ Receptor II/IL-15RαSu) (other)
chain 1: not shown
chain 2: IPPHVQKSVNNDMIVTDNNGAVKFPQLCKFCDVRFSTCDNQKSCMSNCSITSICEKPQEVCVAVWRKNDENITLETVCHDPKLPYHDFILEDAASPKCIMKEKKKPGETFFMCSCSSDECNDNIIFSEEYNTSNPDGGGGSGGGGSGGGGSIPPHVQKSVNNDMIVTDNNGAVKFPQLCKFCDVRFSTCDNQKSCMSNCSITSICEKPQEVCVAVWRKNDENITLETVCHDPKLPYHDFILEDAASPKCIMKEKKKPGETFFMCSCSSDECNDNIIFSEEYNTSNPDITCPPPMSVEHADIWVKSYSLYSRERYICNSGFKRKAGTSSLTECVLNKATNVAHWTTPSLKCIR
With B2 the “IC50, TGFβ1 activity in HEK-Blue TGFβ reporter cells” value (TGFβ1 (R&D systems)) was 1.14 nM.

B3: TGFR/TF/IL-15:CD16scFv/IL-15RαSu/IL-21 protein complex (other)
chain 1: IPPHVQKSVNNDMIVTDNNGAVKFPQLCKFCDVRFSTCDNQKSCMSNCSITSICEKPQEVCVAVWRKNDENITLETVCHDPKLPYHDFILEDAASPKCIMKEKKKPGETFFMCSCSSDECNDNIIFSEEYNTSNPDGGGGSGGGGSGGGGSIPPHVQKSVNNDMIVTDNNGAVKFPQLCKFCDVRFSTCDNQKSCMSNCSITSICEKPQEVCVAVWRKNDENITLETVCHDPKLPYHDFILEDAASPKCIMKEKKKPGETFFMCSCSSDECNDNIIFSEEYNTSNPDSGTTNTVAAYNLTWKSTNFKTILEWEPKPVNQVYTVQISTKSGDWKSKCFYTTDTECDLTDEIVKDVKQTYLARVFSYPAGNVESTGSAGEPLYENSPEFTPYLETNLGQPTIQSFEQVGTKVNVTVEDERTLVRRNNTFLSLRDVFGKDLIYTLYYWKSSSSGKKTAKTNTNEFLIDVDKGENYCFSVQAVIPSRTVNRKSTDSPVECMGQEKGEFRE[about 120 residues left out]
chain 2: not shown
B3 was tested, and the “IC50, TGFβ1 activity in HEK-Blue TGFβ reporter cells” value (TGFβ1 (R&D systems)) was 9.13 nM.

B4: TGFβRII/TF/IL-15 fusion protein (other)
chain: IPPHVQKSVNNDMIVTDNNGAVKFPQLCKFCDVRFSTCDNQKSCMSNCSITSICEKPQEVCVAVWRKNDENITLETVCHDPKLPYHDFILEDAASPKCIMKEKKKPGETFFMCSCSSDECNDNIIFSEEYNTSNPDGGGGSGGGGSGGGGSIPPHVQKSVNNDMIVTDNNGAVKFPQLCKFCDVRFSTCDNQKSCMSNCSITSICEKPQEVCVAVWRKNDENITLETVCHDPKLPYHDFILEDAASPKCIMKEKKKPGETFFMCSCSSDECNDNIIFSEEYNTSNPDSGTTNTVAAYNLTWKSTNFKTILEWEPKPVNQVYTVQISTKSGDWKSKCFYTTDTECDLTDEIVKDVKQTYLARVFSYPAGNVESTGSAGEPLYENSPEFTPYLETNLGQPTIQSFEQVGTKVNVTVEDERTLVRRNNTFLSLRDVFGKDLIYTLYYWKSSSSGKKTAKTNTNEFLIDVDKGENYCFSVQAVIPSRTVNRKSTDSPVECMGQEKGEFRE[about 120 residues left out]
notes: also called TGFRt15; TGFR/TF/IL-15
B4: binds [1]; binds [2]; binds [3]. B4: binds [4]; binds [5].

B5: IL-7/TF/IL-15 fusion protein (other)
chain: DCDIEGKDGKQYESVLMVSIDQLLDSMKEIGSNCLNNEFNFFKRHICDANKEGMFLFRAARKLRQFLKMNSTGDFDLHLLKVSEGTTILLNCTGQVKGRKPAALGEAQPTKSLEENKSLKEQKKLNDLCFLKRLLQEIKTCWNKILMGTKEHSGTTNTVAAYNLTWKSTNFKTILEWEPKPVNQVYTVQISTKSGDWKSKCFYTTDTECDLTDEIVKDVKQTYLARVFSYPAGNVESTGSAGEPLYENSPEFTPYLETNLGQPTIQSFEQVGTKVNVTVEDERTLVRRNNTFLSLRDVFGKDLIYTLYYWKSSSSGKKTAKTNTNEFLIDVDKGENYCFSVQAVIPSRTVNRKSTDSPVECMGQEKGEFRE[about 120 residues left out]
notes: also called 7t15
B5: binds [6]; binds [7]; binds [8]. B5: binds [2]; binds [9].

B6: IL-18/TF/IL-15 fusion protein (other)
chain: [about 150 residues left out]SGTTNTVAAYNLTWKSTNFKTILEWEPKPVNQVYTVQISTKSGDWKSKCFYTTDTECDLTDEIVKDVKQTYLARVFSYPAGNVESTGSAGEPLYENSPEFTPYLETNLGQPTIQSFEQVGTKVNVTVEDERTLVRRNNTFLSLRDVFGKDLIYTLYYWKSSSSGKKTAKTNTNEFLIDVDKGENYCFSVQAVIPSRTVNRKSTDSPVECMGQEKGEFRE[about 120 residues left out]
notes: also called 18t15
B6: binds [10].

B7: IL-12/TF/IL-15 fusion protein (other)
chain: IWELKKDVYVVELDWYPDAPGEMVVLTCDTPEEDGITWTLDQSSEVLGSGKTLTIQVKEFGDAGQYTCHKGGEVLSHSLLLLHKKEDGIWSTDILKDQKEPKNKTFLRCEAKNYSGRFTCWWLTTISTDLTFSVKSSRGSSDPQGVTCGAATLSAERVRGDNKEYEYSVECQEDSACPAAEESLPIEVMVDAVHKLKYENYTSSFFIRDIIKPDPPKNLQLKPLKNSRQVEVSWEYPDTWSTPHSYFSLTFCVQVQGKSKREKKDRVFTDKTSATVICRKNASISVRAQDRYYSSSWSEWASVPCSGGGGSGGGGSGGGGSRNLPVATPDPGMFPCLHHSQNLLRAVSNMLQKARQTLEFYPCTSEEIDHEDITKDKTSTVEACLPLELTKNESCLNSRETSFITNGSCLASRKTSFMMALCLSSIYEDLKMYQVEFKTMNAKLLMDPKRQIFLDQNMLAVIDELMQALNFNSETVPQKSSLEEPDFYKTKIKLCILLHAFRIRAVTIDRVMSYLNASSGTTNTVAAYNLTWKSTNFKTILEWEPKPVNQVYTVQISTKSGDWKSKCFYTTDTECDLTDEIVKDVKQTYLARVFSYPAGNVESTGSAGEPLYENSPEFTPYLETNLGQPTIQSFEQVGTKVNVTVEDERTLVRRNNTFLSLRDVFGKDLIYTLYYWKSSSSGKKTAKTNTNEFLIDVDKGENYCFSVQAVIPSRTVNRKSTDSPVECMGQEKGEFRE[about 120 residues left out]
notes: also called 12t15
B7: binds [11].
